Data: the supplement of paper PMC8007513
Where a name gives a salt, the structure may show the parent alone. ± gives the standard error. Hit rate of the full screen: of about 1,300 compounds, about 75 (6%) showed an effect of 50% or more. This is one part of the list.

Test system: Trichoderma virens ATCC 9645
Assay: growth yield (OD600) relative to untreated control; higher = less growth inhibition
Conditions: compound concentration: 100 uM
In short: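 Trichoderma virens ATCC 9645 spores at 15,000 spores ml^−1 in potato dextrose broth were exposed in 96-well plates to library compounds at 100 μM final, with or without a biocide at 200 ng ml^−1. After growth at 30 °C, OD600 was read at 40 h and 72 h. Values are growth relative to the control without either agent, averaged over duplicate screens.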

Row | SMILES | growth yield (40 h) | growth yield (72 h)
1 | CCC(Cc1c(I)cc(I)c(N)c1I)C(=O)O (stereo not drawn) [Iopanoic acid] | 116 ± 3.2% | 108 ± 3%
2 | CCC(NC(C)C)C(O)c1ccc(O)c(O)c1 (stereo not drawn) [Isoetharine mesylate salt] | 100.9 ± 0.48% | 94.7 ± 0.52%
3 | CN1CCc2cccc3c2[C@H]1Cc1ccc(O)c(O)c1-3 [R(-) Apomorphine hydrochloride hemihydrate] | 86.4 ± 4.5% | 86.1 ± 4.9%
4 | CN1CCN(C2=Nc3cc(Cl)ccc3Nc3ccccc32)CC1 [Clozapine] | 102 ± 2.4% | 104.77 ± 0.1%
5 | C[C@@H]1NC(=O)NC1=O [Methylhydantoin-5-(L)] | 106 ± 7.9% | 101 ± 4.2%
6 | Cc1ccc(-c2ncc(Cl)cc2-c2ccc(S(C)(=O)=O)cc2)cn1 [Etoricoxib] | 104 ± 2.5% | 103 ± 3.4%
7 | CC1CCc2c(N3CCC(O)CC3)c(F)cc3c(=O)c(C(=O)O)cn1c23 (stereo not drawn) [Nadifloxacin] | 99.3 ± 1.1% | 91.14 ± 0.52%
8 | Clc1ccc(COC(Cn2ccnc2)c2ccc(Cl)cc2Cl)c(Cl)c1 (stereo not drawn) [Miconazole] | 1.43 ± 1.1% | 1.47 ± 0.63%
9 | Cc1cc(=O)n(-c2ccccc2)n1C [Antipyrine] | 105 ± 2.2% | 101 ± 2.2%
10 | NC12CC3CC(CC(C3)C1)C2 [Adamantamine fumarate] | 102 ± 1.8% | 98.69 ± 0.94%
11 | CN(C)CC/C=C1\c2ccccc2CSc2ccccc21 [Dosulepin hydrochloride] | 106 ± 4.8% | 108 ± 4.7%
12 | CC(C)(Oc1ccc(Cl)cc1)C(=O)O [Clofibric acid] | 93.9 ± 4% | 87.8 ± 3%
13 | Cn1c(=O)c2c(ncn2CC(=O)O)n(C)c1=O [Acefylline] | 96.6 ± 1.9% | 95.12 ± 0.94%
14 | Cc1cc(C(=O)NNCc2ccccc2)no1 [Isocarboxazid] | 102 ± 7% | 94.3 ± 4.5%
15 | CO[C@H]1C[C@H](O[C@H]2[C@H](C)[C@@H](O[C@@H]3O[C@H](C)C[C@H](N(C)C)[C@H]3OC(C)=O)[C@@H](C)C[C@@]3(CO3)C(=O)[C@H](C)[C@@H](OC(C)=O)[C@@H](C)[C@@H](C)OC(=O)[C@@H]2C)O[C@@H](C)[C@@H]1OC(C)=O [Troleandomycin] | 100.5 ± 0.79% | 98.4 ± 1.3%
16 | COc1cc(OC)c(C(=O)CCCN2CCCC2)c(OC)c1 [Buflomedil hydrochloride] | 107 ± 5.1% | 105 ± 7.1%
17 | N#CC(c1ccc(Cl)cc1)c1c(Cl)cc(-n2ncc(=O)[nH]c2=O)cc1Cl (stereo not drawn) [Diclazuril] | 95.62 ± 0.64% | 89.46 ± 0.1%

Row | SMILES | growth yield (40 h) | growth yield (72 h)
18 | CCN1C(=O)NC(c2ccccc2)C1=O (stereo not drawn) [Ethotoin] | 100 ± 2.1% | 96.3%
19 | CN1CCCC(CC2c3ccccc3Sc3ccccc32)C1 (stereo not drawn) [Metixene hydrochloride] | 91.3 ± 10% | 106 ± 11%
20 | COc1ccccc1N1CCN(CC(O)COc2cccc3ccccc23)CC1 (stereo not drawn) [Naftopidil dihydrochloride] | 97.4 ± 1.1% | 110.22 ± 0.1%
21 | CN1CCC(=C2c3ccccc3CC(=O)c3sccc32)CC1 [Ketotifen fumarate] | 95.78 ± 0.48% | 101 ± 2.9%
22 | COc1ccc2c(c1)N(C[C@H](C)CN(C)C)c1ccccc1S2 [Methotrimeprazine maleat salt] | 103 ± 10% | 107 ± 7.1%
23 | CCCN(CCC)C(=O)C(CCC(=O)O)NC(=O)c1ccccc1 (stereo not drawn) [Proglumide] | 99.91 ± 0.16% | 97.1%
24 | CC(C)(Sc1cc(C(C)(C)C)c(O)c(C(C)(C)C)c1)Sc1cc(C(C)(C)C)c(O)c(C(C)(C)C)c1 [Probucol] | 99.8 ± 1.9% | 103.8 ± 0.21%
25 | Nc1c(Br)cc(Br)cc1CN[C@H]1CC[C@H](O)CC1 [Ambroxol hydrochloride] | 97.5% | 104.56 ± 0.1%
26 | Cn1ccnc1S [Methimazole] | 96.7 ± 3% | 95.33 ± 0.32%
27 | COCC1=C(C(=O)OC(C)OC(=O)OC(C)C)N2C(=O)[C@@H](NC(=O)/C(=N\OC)c3csc(N)n3)[C@H]2SC1 (stereo partly drawn) [Cefpodoxime proxetil] | 111 ± 5.2% | 109 ± 1.9%
28 | CCN(CC)CCOC(=O)C(c1ccccc1)C1CCCCC1 (stereo not drawn) [Drofenine hydrochloride] | 98 ± 6.5% | 99 ± 6.3%
29 | COc1cc(Cc2cnc(N)nc2N)cc(OC)c1OC [Trimethoprim] | 103 ± 3.5% | 104 ± 1.5%
30 | O=C(CCCN1CCC(O)(c2ccc(Br)cc2)CC1)c1ccc(F)cc1 [Bromperidol] | 104.4 ± 0.48% | 105.4 ± 0.1%
31 | CC(=O)c1ccc2c(c1)N(CCCN1CCC(CCO)CC1)c1ccccc1S2 [Piperacetazine] | 124 ± 8.6% | 119 ± 8.9%
32 | CO[C@@]1(NC(=O)Cc2cccs2)C(=O)N2C(C(=O)O)=C(COC(N)=O)CS[C@@H]21 [Cefoxitin sodium salt] | 94.4 ± 3.5% | 94.8 ± 1.9%
33 | CCCCC(CC)CN1CN(CC(CC)CCCC)CC(C)(N)C1 (stereo not drawn) [Hexetidine] | 105 ± 3.2% | 118 ± 6.3%
34 | COc1cc2c(cc1OC)C(=O)C(CC1CCN(Cc3ccccc3)CC1)C2 (stereo not drawn) [Donepezil hydrochloride] | 99.91 ± 0.16% | 98.69 ± 0.94%
